Reference: paper PMC12820563
Some of the results follow. The list includes weakly bound sequences.

The sequences below were run against T1, MBP-FoxP3dN (UniProt Q99JB6) (assay: PD-seq (MBP pull-down with sequencing)). Details: 20 mM Tris-HCl pH 7.5, 100 mM NaCl, 1.5 mM MgCl2, 0.4 uM protein, 0.1 uM dsDNA library, 30 min, room temperature, amylose pull-down; high values mean tight binding; double strand, one strand shown.
T1 sequence: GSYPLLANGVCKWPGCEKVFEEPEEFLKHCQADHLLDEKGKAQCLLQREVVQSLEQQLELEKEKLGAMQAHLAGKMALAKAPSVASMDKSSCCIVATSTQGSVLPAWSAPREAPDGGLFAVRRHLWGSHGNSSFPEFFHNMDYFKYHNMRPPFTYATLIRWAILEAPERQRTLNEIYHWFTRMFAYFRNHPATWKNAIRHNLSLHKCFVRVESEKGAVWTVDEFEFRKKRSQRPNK

Sequence | binding signal (RPM ratio (pull-down/input))
GATGATTGTTCTCCCAGCTGATGAATTAAGGCTTTCGAGTAAACAAATTTTCCTAATCTTTCTGTTCAAGCGCCATCTAC | 1.08
GATGATTGTTCTCCCAGCTGATGAATTAGACGTCTCGAGTAAACAAATTTTCCTAATCTTTCTGTTCAAGCGCCATCTAC | 0.536
GATGATTGTTCTCCCAGCTGATGAATTATAGGAGTCGAGTAAACAAATTTTCCTAATCTTTCTGTTCAAGCGCCATCTAC | 0.248
GATGATTGTTCTCCCAGCTGATGAATTCTGCCACTCGAGTAAACAAATTTTCCTAATCTTTCTGTTCAAGCGCCATCTAC | 6.04
GATGATTGTTCTCCCAGCTGATGAATTCTATAGGTCGAGTAAACAAATTTTCCTAATCTTTCTGTTCAAGCGCCATCTAC | 0.372
GATGATTGTTCTCCCAGCTGATGAATTCCCCATCTCGAGTAAACAAATTTTCCTAATCTTTCTGTTCAAGCGCCATCTAC | 0.283
GATGATTGTTCTCCCAGCTGATGAATTTATTATTTCGAGTAAACAAATTTTCCTAATCTTTCTGTTCAAGCGCCATCTAC | 5.57
GATGATTGTTCTCCCAGCTGATGAATTCCCAACCTCGAGTAAACAAATTTTCCTAATCTTTCTGTTCAAGCGCCATCTAC | 0.244
GATGATTGTTCTCCCAGCTGATGAATTCTGGGTGTCGAGTAAACAAATTTTCCTAATCTTTCTGTTCAAGCGCCATCTAC | 0.658
GATGATTGTTCTCCCAGCTGATGAATTCATTCCGTCGAGTAAACAAATTTTCCTAATCTTTCTGTTCAAGCGCCATCTAC | 0.236
GATGATTGTTCTCCCAGCTGATGAATTTCGTACGTCGAGTAAACAAATTTTCCTAATCTTTCTGTTCAAGCGCCATCTAC | 0.52
GATGATTGTTCTCCCAGCTGATGAATTGGAATTCTCGAGTAAACAAATTTTCCTAATCTTTCTGTTCAAGCGCCATCTAC | 0.526
GATGATTGTTCTCCCAGCTGATGAATTCTAATCTTCGAGTAAACAAATTTTCCTAATCTTTCTGTTCAAGCGCCATCTAC | 0.335
GATGATTGTTCTCCCAGCTGATGAATTGGTTCCATCGAGTAAACAAATTTTCCTAATCTTTCTGTTCAAGCGCCATCTAC | 0.356
GATGATTGTTCTCCCAGCTGATGAATTGTGGATATCGAGTAAACAAATTTTCCTAATCTTTCTGTTCAAGCGCCATCTAC | 0.944
GATGATTGTTCTCCCAGCTGATGAATTAGGGAACTCGAGTAAACAAATTTTCCTAATCTTTCTGTTCAAGCGCCATCTAC | 0.254

Sequence | binding signal (RPM ratio (pull-down/input))
GATGATTGTTCTCCCAGCTGATGAATTGCATACATCGAGTAAACAAATTTTCCTAATCTTTCTGTTCAAGCGCCATCTAC | 1.6
GATGATTGTTCTCCCAGCTGATGAATTCCACTGCTCGAGTAAACAAATTTTCCTAATCTTTCTGTTCAAGCGCCATCTAC | 0.312
GATGATTGTTCTCCCAGCTGATGAATTGCCCGAGTCGAGTAAACAAATTTTCCTAATCTTTCTGTTCAAGCGCCATCTAC | 0.303
GATGATTGTTCTCCCAGCTGATGAATTGAACGTCTCGAGTAAACAAATTTTCCTAATCTTTCTGTTCAAGCGCCATCTAC | 0.388
GATGATTGTTCTCCCAGCTGATGAATTTTATGGATCGAGTAAACAAATTTTCCTAATCTTTCTGTTCAAGCGCCATCTAC | 0.6
GATGATTGTTCTCCCAGCTGATGAATTAGCTGTGTCGAGTAAACAAATTTTCCTAATCTTTCTGTTCAAGCGCCATCTAC | 2.61
GATGATTGTTCTCCCAGCTGATGAATTATGGTCATCGAGTAAACAAATTTTCCTAATCTTTCTGTTCAAGCGCCATCTAC | 0.779
GATGATTGTTCTCCCAGCTGATGAATTGACCAACTCGAGTAAACAAATTTTCCTAATCTTTCTGTTCAAGCGCCATCTAC | 0.351
GATGATTGTTCTCCCAGCTGATGAATTGCACCAGTCGAGTAAACAAATTTTCCTAATCTTTCTGTTCAAGCGCCATCTAC | 0.607
GATGATTGTTCTCCCAGCTGATGAATTCGATATCTCGAGTAAACAAATTTTCCTAATCTTTCTGTTCAAGCGCCATCTAC | 1.35
GATGATTGTTCTCCCAGCTGATGAATTAGAACGCTCGAGTAAACAAATTTTCCTAATCTTTCTGTTCAAGCGCCATCTAC | 0.346
GATGATTGTTCTCCCAGCTGATGAATTGGAAAAGTCGAGTAAACAAATTTTCCTAATCTTTCTGTTCAAGCGCCATCTAC | 0.135
GATGATTGTTCTCCCAGCTGATGAATTCACCATCTCGAGTAAACAAATTTTCCTAATCTTTCTGTTCAAGCGCCATCTAC | 0.399
GATGATTGTTCTCCCAGCTGATGAATTCGTGGCGTCGAGTAAACAAATTTTCCTAATCTTTCTGTTCAAGCGCCATCTAC | 1.02
GATGATTGTTCTCCCAGCTGATGAATTAGGTTGCTCGAGTAAACAAATTTTCCTAATCTTTCTGTTCAAGCGCCATCTAC | 1.25
GATGATTGTTCTCCCAGCTGATGAATTGATCTATTCGAGTAAACAAATTTTCCTAATCTTTCTGTTCAAGCGCCATCTAC | 0.433
